The experiment addresses T1, mouse RGMb (mRGMb) expressed on transfected cells (mouse, UniProt Q7TQ33 49-415).
T1 construct: whole, on cells; Also used for mRGMb in cell lysates (Western blot); also called DRAGON; 300-mRGMb cells
T1 sequence (looked up): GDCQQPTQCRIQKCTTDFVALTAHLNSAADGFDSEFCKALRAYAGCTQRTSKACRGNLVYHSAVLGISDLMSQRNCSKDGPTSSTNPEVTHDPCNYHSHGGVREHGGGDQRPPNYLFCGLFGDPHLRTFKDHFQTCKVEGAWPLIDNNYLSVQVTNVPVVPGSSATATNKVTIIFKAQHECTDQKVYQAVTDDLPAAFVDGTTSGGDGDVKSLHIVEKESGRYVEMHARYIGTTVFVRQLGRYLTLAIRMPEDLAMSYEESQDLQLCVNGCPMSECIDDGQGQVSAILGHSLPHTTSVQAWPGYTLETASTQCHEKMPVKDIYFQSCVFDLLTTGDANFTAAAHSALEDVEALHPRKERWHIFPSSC
Description: figure legend of FIGS. 1A-1R (flow cytometry, ELISA, cell conjugation).

B1: mouse PD-L1 (mPD-L1) expressed on transfected 300 cells (ligand)
chain: not shown
notes: whole, on cells; also called 300-mPDL 1; mPD-L1 cells
On to B1, for which the binding result was “no binding”.

Source of the values: US20150299322A1 (Dana-Farber, published 2015).
